About 2,200 (0.71%) of roughly 310,000 compounds showed an effect of 50% or more. The effect is printed as a negative number. The list shows a part of the results.
Each compound was assayed against human ether-à-go-go-related gene (hERG) potassium channel (human, UniProt Q12809) (assay: primary screen, population patch clamp on CHO cells stably expressing hERG).
Sequence of human ether-à-go-go-related gene (hERG) potassium channel (Q12809 whole entry, looked up): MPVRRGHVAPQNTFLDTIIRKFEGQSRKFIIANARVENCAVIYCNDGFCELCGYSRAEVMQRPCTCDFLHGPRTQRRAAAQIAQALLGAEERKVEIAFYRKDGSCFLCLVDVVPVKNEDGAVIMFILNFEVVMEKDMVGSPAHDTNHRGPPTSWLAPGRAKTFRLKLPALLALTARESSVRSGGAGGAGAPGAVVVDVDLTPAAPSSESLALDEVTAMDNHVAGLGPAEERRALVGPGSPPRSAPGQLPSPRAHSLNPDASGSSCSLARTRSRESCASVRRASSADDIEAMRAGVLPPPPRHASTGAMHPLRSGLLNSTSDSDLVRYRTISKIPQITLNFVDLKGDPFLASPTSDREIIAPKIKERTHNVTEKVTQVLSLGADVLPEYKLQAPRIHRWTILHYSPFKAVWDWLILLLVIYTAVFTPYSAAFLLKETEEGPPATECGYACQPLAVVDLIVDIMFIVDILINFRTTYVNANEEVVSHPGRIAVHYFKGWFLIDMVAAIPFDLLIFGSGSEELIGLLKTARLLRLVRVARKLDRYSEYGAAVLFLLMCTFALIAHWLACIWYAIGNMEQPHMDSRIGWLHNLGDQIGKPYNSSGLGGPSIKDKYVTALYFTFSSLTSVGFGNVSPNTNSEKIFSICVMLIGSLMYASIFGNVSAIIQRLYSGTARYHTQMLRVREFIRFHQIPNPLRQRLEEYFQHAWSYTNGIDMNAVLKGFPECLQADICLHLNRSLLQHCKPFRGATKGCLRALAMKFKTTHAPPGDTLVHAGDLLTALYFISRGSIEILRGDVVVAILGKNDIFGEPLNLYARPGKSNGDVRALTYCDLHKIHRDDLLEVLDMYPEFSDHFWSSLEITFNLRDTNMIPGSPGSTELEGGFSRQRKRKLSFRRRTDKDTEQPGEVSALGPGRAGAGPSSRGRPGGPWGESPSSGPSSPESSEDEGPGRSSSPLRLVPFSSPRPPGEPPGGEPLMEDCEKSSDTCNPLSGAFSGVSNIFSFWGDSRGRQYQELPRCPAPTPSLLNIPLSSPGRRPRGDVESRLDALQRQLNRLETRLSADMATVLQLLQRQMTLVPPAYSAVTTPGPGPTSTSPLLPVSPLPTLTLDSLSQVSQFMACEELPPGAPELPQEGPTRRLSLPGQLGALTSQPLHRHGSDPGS

| Compound | hERG current change (%, negative = inhibition) at 1uM |
| --- | --- |
| CC1CCCN(C(=O)c2cc3c(-c4ccc(Cl)cc4)nn(C)c3s2)C1 (centres unmarked) | 0.405% |
| COC(CNC(=O)c1cccc2c1C(=O)N(Cc1cccnc1)C2)OC | 10.1% |
| CCOC(=O)c1ccc(-c2ccc(/C=N/NC(=O)c3cncc(Br)c3)o2)cc1 | 13.1% |
| CCO[C@@H]1OC(C(=O)N2CCN(Cc3ccccc3)CC2)=C[C@H](c2ccccc2)[C@H]1CCCO | 9.19% |
| COc1ccccc1CNC(=O)Cc1ccc(C)cc1 | 3.1% |
| Nc1ccc(-c2cnc[nH]2)cc1[N+](=O)[O-] | 14.9% |
| CC(=O)NCCc1nc2cc(NC(=O)c3ccc([N+](=O)[O-])cc3)ccc2n1C | 4.1% |
| Cc1ccc(S(=O)(=O)N2CCC(=O)N(C(COCc3ccc(Cl)cc3Cl)Cc3ccccc3)CC2)cc1 (centres unmarked) | 12.9% |
| Cc1ccccc1NS(=O)(=O)c1nnc(NC(=O)c2ccccc2F)s1 | 20.3% |
| CCOc1ccc(/C=N/NC(=O)CSc2ccccn2)cc1O | 2.12% |
| CC1=NNC(=O)C1CCC(=O)N/N=C/c1ccccc1 (centres unmarked) | 11.5% |
| COc1ccc(/C=C(/C#N)C(=O)Nc2cccnc2)cc1OC | -1.31% |
| Cc1cc(C)cc(NC(=O)N2CCC(NC(=O)c3ccc(F)cc3)CC2)c1 | -2.93% |
| Cc1cc(C)nc(N(C#N)Cc2ccc([N+](=O)[O-])cc2)n1 | -5.55% |
| Cc1ccc(OCc2nc(C#N)c(N3CCCCC3)o2)cc1 | 12.7% |
| COC(=O)c1cc(NC(=O)Cc2cc(OC)c(OC)c(OC)c2)cc(C(=O)OC)c1 | 13.4% |
| OCCCc1ccc(O)c(O)c1 | -3.41% |
| O=S(=O)(c1cccc2nsnc12)N1CCNCC1 | 6.6% |
| CC1CCCCN1CCNC(=O)c1ccc2c(=O)n(Cc3ccc(Cl)cc3)c(=S)[nH]c2c1 (centres unmarked) | -5.71% |
| COc1ccc(C(=O)COc2ccccc2N2C(=O)C3C4C=CC(C4)C3C2=O)cc1 (centres unmarked) | 3.84% |
| O=S(=O)(NCCc1cn2ccccc2n1)c1ccc2c(c1)CCCC2 | -3.09% |
| CN=C(Cc1ccccc1)C1=C(O)CC(C)(C)CC1=O | 14.8% |

| Compound | hERG current change (%, negative = inhibition) at 1uM |
| --- | --- |
| COc1ccc(CNC(=O)CN(c2ccc(OC)cc2)S(=O)(=O)c2c(C)nn(C)c2C)cc1 | 0.558% |
| O=C(CCNC(=O)N1CC(=O)Nc2ccccc21)Nc1cccc(Cl)c1 | 14.3% |
| CCN(CC)CCn1c(=S)[nH]c2cc(Cl)ccc2c1=O | -45.6% |
| COc1cc(C(=O)NCC(=O)N2CCN(S(=O)(=O)c3cc(C)ccc3C)CC2)cc(OC)c1OC | 3.56% |
| O=c1[nH]ncc(NCCCO)c1Cl | 8.27% |
| CC1CCCN(S(=O)(=O)c2cccc3nonc23)C1 (centres unmarked) | 11.5% |
| C#CCSc1nc(N)c2c(n1)OC(N)=C(C#N)C2c1cccnc1 (centres unmarked) | 4.59% |
| CCc1ccc(NC(=O)C2CCC(CNC(=O)[C@@H]3Cc4ccccc4CN3)CC2)cc1 (some centres unmarked) | 12.1% |
| O=C(Nc1cc(S(=O)(=O)N2CCOCC2)ccc1N1CCOCC1)c1cn2ccccc2n1 | -7.67% |
| CCOC(=O)c1ccc(S(=O)(=O)NNC(=O)COc2cccc(C)c2)cc1 | 23.3% |
| Cc1c(Cl)cccc1NC(=O)Nc1ccccc1C(N)=O | 11.6% |
| Cc1nn(Cc2c(Cl)cccc2Cl)c(C)c1NC(=O)CCCn1nc(C)c([N+](=O)[O-])c1C | 5.96% |
| CC(NC(=O)c1ccc(Br)cc1)c1ccc2c(c1)CCCC2 (centres unmarked) | 5.34% |
| Cc1ccc(Cl)cc1N1CCN(S(C)(=O)=O)CC1 | 4.78% |
| O=C(CN(c1cccc([N+](=O)[O-])c1)S(=O)(=O)c1ccccc1)N(Cc1ccccc1)Cc1ccccc1 | 8.33% |
| CC(C(=O)OCn1nnc2ccccc2c1=O)N1C(=O)c2ccccc2C1=O (centres unmarked) | 4.25% |
| CCOc1cc2[nH]c(=S)n(Cc3ccc(C(=O)NCCCN4CCOCC4)cc3)c(=O)c2cc1OCC | 14.9% |
| COc1cc2[nH]c3c(=O)n(CCN4CCOCC4)cnc3c2cc1OC | -4.6% |
| O=C1/C(=C\c2ccccc2Cl)SC(=S)N1CCC(=O)N1CCCc2ccccc21 | 10.9% |
| COC(=O)C1=NN(C(=O)c2ccc(C)cc2)C(O)(c2ccc(Cl)cc2)C1 (centres unmarked) | 6.18% |
| O=C1C2C3C=CC(C2C(=O)N1c1nccs1)C1C(=O)N(c2nccs2)C(=O)C31 (centres unmarked) | 13% |
| Cc1cc(N2CCC(C(N)=O)CC2)nc(-c2ccccc2)n1 | 1.01% |

Source: paper PMC4336329 (PLoS ONE, 2015)
